T1: IL-7Rα/IL-2Rγ on human T cells (human, UniProt P16871 21-459; P31785 23-369)
T1 sequence (looked up) 1: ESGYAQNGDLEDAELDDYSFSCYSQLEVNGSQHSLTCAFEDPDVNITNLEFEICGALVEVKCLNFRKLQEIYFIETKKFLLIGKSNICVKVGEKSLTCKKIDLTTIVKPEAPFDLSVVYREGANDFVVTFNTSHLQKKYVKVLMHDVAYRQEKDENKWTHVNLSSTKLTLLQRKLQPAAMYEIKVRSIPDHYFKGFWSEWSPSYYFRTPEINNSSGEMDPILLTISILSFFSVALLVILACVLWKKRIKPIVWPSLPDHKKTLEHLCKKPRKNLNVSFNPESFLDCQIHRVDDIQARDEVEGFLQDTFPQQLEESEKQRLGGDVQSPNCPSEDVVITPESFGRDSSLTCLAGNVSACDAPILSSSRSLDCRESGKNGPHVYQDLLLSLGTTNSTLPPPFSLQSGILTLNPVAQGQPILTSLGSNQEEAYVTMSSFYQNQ
T1 sequence (looked up) 2: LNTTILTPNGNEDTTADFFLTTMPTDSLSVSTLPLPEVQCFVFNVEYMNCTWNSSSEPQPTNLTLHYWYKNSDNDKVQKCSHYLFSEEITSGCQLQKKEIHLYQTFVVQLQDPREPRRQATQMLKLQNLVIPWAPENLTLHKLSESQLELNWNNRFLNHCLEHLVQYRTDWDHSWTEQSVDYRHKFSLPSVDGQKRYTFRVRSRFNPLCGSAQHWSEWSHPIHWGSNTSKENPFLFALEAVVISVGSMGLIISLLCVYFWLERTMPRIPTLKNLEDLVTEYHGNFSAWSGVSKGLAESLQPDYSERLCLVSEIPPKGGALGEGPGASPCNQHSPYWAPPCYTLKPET


How the values were obtained:
[1] = molecular target: T1, IL-7Rα/IL-2Rγ on human T cells; experiment: cell-based or functional assay
[2] = molecular target: human PD-1 on T cells (human, UniProt Q15116 25-288); experiment: cell-based or functional assay
[3] = molecular target: T1, IL-7Rα/IL-2Rγ on human T cells; experiment: cell-based or functional assay; remark: listed apart in the source
[4] = molecular target: T2, cynomolgus IL7Ra-IL2Rg-Fc biotin (cynomolgus, UniProt P13232;Q29615); experiment: SPR, captured via anti-P329G, receptor-Fc 2.34-300 nM, 1:1 fit
T2 construct: extracellular domain; Heterodimer of the ECD of IL7Ra and IL2Rg chains fused to an Fc; also called cynomolgus IL7Ralpha-IL2Rgamma-Fc heterodimer; cynomolgus IL7 receptor
Experimental: Surface Plasmon Resonance (SPR) experiments were performed on a Biacore 8 K with HBS-EP + 1 mg/ml BSA as running buffer. Anti-P329G Fc specific antibody (Roche internal) was directly immobilized by amine coupling on a C1 chip (Cytiva). The PD1-IL7 constructs were captured for 140 s at 5 nM. […] The dissociation phase was monitored for 800 s and triggered by switching from the sample solution to running buffer. The chip surface was regenerated after every cycle using two injections of 10 mM glycine pH 2 for 60 sec. Bulk refractive index differences were corrected for by subtracting the response obtained on the reference flow cell (containing immobilized anti P329G Fc specific IgG only). The affinity constants were derived from the kinetic rate constants by fitting to a 1:1 Langmuir binding using the Biacore evaluation software (Cytiva).
Four IL7 single variants and two IL7 double variants were compared to IL7 wild-type for binding to cynomolgus IL7 receptor (Table 18). The affinity of the IL7 variants to the IL7 receptor was determined using the recombinant heterodimer of the extracellular domains of the IL7 receptor alpha chain and the common IL2 receptor gamma chain.

[5] = molecular target: T3, Human IL7Ra-IL2Rγ-Fc heterodimer (human, biotin on the avi tag); experiment: SPR, captured from supernatant, 800 nM receptor-Fc single injection
T3 construct: Extracellular domains of IL-7Ralpha and IL-2Rgamma fused to Fc knob and Fc hole; also called hu IL7Ra-IL2Rγ-Fc avi biotin; human IL7Ra-IL2Rg-Fc biotin
Experimental: Surface Plasmon Resonacne (SPR) experiments were performed on a Biacore T200 with HBS-EP+ as running buffer (0.01 M HEPES pH 7.4, 0.15 M NaCl, 0.005% Surfactant P20 (BR-1006-69, GE Healthcare)). Fc specific antibodies (Roche internal) were directly immobilized by amine coupling on a CM5 chip (GE Healthcare). The PDI-IL7 constructs were captured from supernatants for 120 s at 100 nM. […] Only the extracellular domains were fused to Fc domains, produced in HEK Expi Cells and purified by two-step column chromatography including affinity purification via Protein A followed by size-exclusion chromatography. A single injection of 800 nM hu IL 7Ra-IL2Rγ-Fc heterodimer was passed over the ligand at 30 µ1/min for 240 sec to record the association phase. The dissociation phase was monitored for 360 s and triggered by switching from the sample solution to HBS-EP+. The chip surface was regenerated after every cycle using one injection of 10 mM glycine pH 2 for 60 sec. Bulk refractive index differences were corrected for by subtracting the response obtained on the reference flow cell 1. The response units after the capture step and at the end of the association phase were recorded and a ratio of binding to capture was calculated. The single binding curves were fitted in the dissociation phase to obtain a koff for ease of comparison (Biacore Evaluation software, GE Healthcare).
The ratio of binding to capture was calculated and the dissociation phase was fitted to a single curve to support characterization of the off-rate. All N-glycosylation knock-out variants (single and triple mutants) have an off-rate similar to wild-type IL7 (Table 13).

[6] = molecular target: T3, Human IL7Ra-IL2Rγ-Fc heterodimer; experiment: SPR (Example 2.4), captured via anti-P329G, receptor-Fc 2.34-300 nM, 1:1 fit

UniProt Q15116, sequence (Q15116 25-288 limits assumed): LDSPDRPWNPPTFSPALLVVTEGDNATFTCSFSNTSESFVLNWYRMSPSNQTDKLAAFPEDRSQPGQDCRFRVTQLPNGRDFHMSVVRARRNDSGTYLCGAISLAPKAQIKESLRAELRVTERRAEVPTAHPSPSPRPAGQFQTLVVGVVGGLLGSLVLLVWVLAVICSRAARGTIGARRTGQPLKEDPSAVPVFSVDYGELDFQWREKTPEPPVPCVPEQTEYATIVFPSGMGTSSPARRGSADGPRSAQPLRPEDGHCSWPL

Row | Binder | fold increase in EC50, EC50 [PD1+]/EC50 PD1-IL7wt [PD1+] [1] [fold] | fold increase in EC50, EC50 [with PD1bl]/EC50 [PD1+] [2] [fold] | EC50[active] / EC50 [active PD1-IL7wt] [3] [fold] | EC50[fresh]/EC50 [fresh PD1-IL7wt] [3] [fold] | STAT5-P AUC [active] [3] | STAT5-P AUC [fresh] [3] | Kd [4] [nM] | koff [4] [s⁻¹] | kon [4] [M⁻¹ s⁻¹] | koff [5] [s⁻¹] | Kd [6] [nM] | koff [6] [s⁻¹] | kon [6] [M⁻¹ s⁻¹]
1 | PD1-IL7wt (other, also called PDI-IL7wt; PD1-ILwt) light: DIVMTQSPDSLAVSLGERATINCKASESVDTSDNSFIHWYQQKPGQSPKLLIYRSSTLESGVPDRFSGSGSGTDFTLTISSLQAEDVAVYYCQQNYDVPWTFGQGTKVEIKRTVAAPSVFIFPPSDEQLKSGTASVVCLLNNFYPREAKVQWKVDNALQSGNSQESVTEQDSKDSTYSLSSTLTLSKADYEKHKVYACEVTHQGLSSPVTKSFNRGEC heavy 1: EVQLLESGGGLVQPGGSLRLSCAASGFSFSSYTMSWVRQAPGKGLEWVATISGGGRDIYYPDSVKGRFTISRDNSKNTLYLQMNSLRAEDTAVYYCVLLTGRVYFALDSWGQGTLVTVSSASTKGPSVFPLAPSSKSTSGGTAALGCLVKDYFPEPVTVSWNSGALTSGVHTFPAVLQSSGLYSLSSVVTVPSSSLGTQTYICNVNHKPSNTKVDKKVEPKSCDKTHTCPPCPAPEAAGGPSVFLFPPKPKDTLMISRTPEVTCVVVDVSHEDPEVKFNWYVDGVEVHNAKTKPREEQYNSTYRVVSVLTVLHQDWLNGKEYKCKVSNKALGAPIEKTISKAKGQPREPQVCTLPPSRDELTKNQVSLSCAVKGFYPSDIAVEWESNGQPENNYKTTPPVLDSDGSFFLVSKLTVDKSRWQQGNVFSCSVMHEALHNHYTQKSLSLSPGK heavy 2: EVQLLESGGGLVQPGGSLRLSCAASGFSFSSYTMSWVRQAPGKGLEWVATISGGGRDIYYPDSVKGRFTISRDNSKNTLYLQMNSLRAEDTAVYYCVLLTGRVYFALDSWGQGTLVTVSSASTKGPSVFPLAPSSKSTSGGTAALGCLVKDYFPEPVTVSWNSGALTSGVHTFPAVLQSSGLYSLSSVVTVPSSSLGTQTYICNVNHKPSNTKVDKKV[human IgG1 Fc with changes left out]GGGGSGGGGSGGGGSDCDIEGKDGKQYESVLMVSIDQLLDSMKEIGSNCLNNEFNFFKRHICDANKEGMFLFRAARKLRQFLKMNSTGDFDLHLLKVSEGTTILLNCTGQVKGRKPAALGEAQPTKSLEENKSLKEQKKLNDLCFLKRLLQEIKTCWNKILMGTKEH | 1 | 1.5 | 1 | 1 | 200 | 377 | 1.03 | 0.000355 | 345000 | 0.000446 | 0.567 | 0.000218 | 389000
2 | PD1-IL7-VAR18 (K81E) (other, Format as m1; IL-7 with K81E; also called PD1-IL7 -K81E (Var18); PD1-IL7v variant 18) light: DIVMTQSPDSLAVSLGERATINCKASESVDTSDNSFIHWYQQKPGQSPKLLIYRSSTLESGVPDRFSGSGSGTDFTLTISSLQAEDVAVYYCQQNYDVPWTFGQGTKVEIKRTVAAPSVFIFPPSDEQLKSGTASVVCLLNNFYPREAKVQWKVDNALQSGNSQESVTEQDSKDSTYSLSSTLTLSKADYEKHKVYACEVTHQGLSSPVTKSFNRGEC heavy 1: EVQLLESGGGLVQPGGSLRLSCAASGFSFSSYTMSWVRQAPGKGLEWVATISGGGRDIYYPDSVKGRFTISRDNSKNTLYLQMNSLRAEDTAVYYCVLLTGRVYFALDSWGQGTLVTVSSASTKGPSVFPLAPSSKSTSGGTAALGCLVKDYFPEPVTVSWNSGALTSGVHTFPAVLQSSGLYSLSSVVTVPSSSLGTQTYICNVNHKPSNTKVDKKVEPKSCDKTHTCPPCPAPEAAGGPSVFLFPPKPKDTLMISRTPEVTCVVVDVSHEDPEVKFNWYVDGVEVHNAKTKPREEQYNSTYRVVSVLTVLHQDWLNGKEYKCKVSNKALGAPIEKTISKAKGQPREPQVCTLPPSRDELTKNQVSLSCAVKGFYPSDIAVEWESNGQPENNYKTTPPVLDSDGSFFLVSKLTVDKSRWQQGNVFSCSVMHEALHNHYTQKSLSLSPGK heavy 2: EVQLLESGGGLVQPGGSLRLSCAASGFSFSSYTMSWVRQAPGKGLEWVATISGGGRDIYYPDSVKGRFTISRDNSKNTLYLQMNSLRAEDTAVYYCVLLTGRVYFALDSWGQGTLVTVSSASTKGPSVFPLAPSSKSTSGGTAALGCLVKDYFPEPVTVSWNSGALTSGVHTFPAVLQSSGLYSLSSVVTVPSSSLGTQTYICNVNHKPSNTKVDKKV[human IgG1 Fc with changes left out]GGGGSGGGGSGGGGSDCDIEGKDGKQYESVLMVSIDQLLDSMKEIGSNCLNNEFNFFKRHICDANKEGMFLFRAARKLRQFLKMNSTGDFDLHLLEVSEGTTILLNCTGQVKGRKPAALGEAQPTKSLEENKSLKEQKKLNDLCFLKRLLQEIKTCWNKILMGTKEH | 4.3 | 10.8 | 12 | 62.9 | 119 | 214 | 3.93 | 0.000951 | 242000 | – | 1.44 | 0.000563 | 392000
3 | PD1-IL7-VAR21 (G85E) (other, Format as m1; IL-7 with G85E; also called PD1-IL7 -G85E (Var21); PD1-IL7v variant 21) light: DIVMTQSPDSLAVSLGERATINCKASESVDTSDNSFIHWYQQKPGQSPKLLIYRSSTLESGVPDRFSGSGSGTDFTLTISSLQAEDVAVYYCQQNYDVPWTFGQGTKVEIKRTVAAPSVFIFPPSDEQLKSGTASVVCLLNNFYPREAKVQWKVDNALQSGNSQESVTEQDSKDSTYSLSSTLTLSKADYEKHKVYACEVTHQGLSSPVTKSFNRGEC heavy 1: EVQLLESGGGLVQPGGSLRLSCAASGFSFSSYTMSWVRQAPGKGLEWVATISGGGRDIYYPDSVKGRFTISRDNSKNTLYLQMNSLRAEDTAVYYCVLLTGRVYFALDSWGQGTLVTVSSASTKGPSVFPLAPSSKSTSGGTAALGCLVKDYFPEPVTVSWNSGALTSGVHTFPAVLQSSGLYSLSSVVTVPSSSLGTQTYICNVNHKPSNTKVDKKVEPKSCDKTHTCPPCPAPEAAGGPSVFLFPPKPKDTLMISRTPEVTCVVVDVSHEDPEVKFNWYVDGVEVHNAKTKPREEQYNSTYRVVSVLTVLHQDWLNGKEYKCKVSNKALGAPIEKTISKAKGQPREPQVCTLPPSRDELTKNQVSLSCAVKGFYPSDIAVEWESNGQPENNYKTTPPVLDSDGSFFLVSKLTVDKSRWQQGNVFSCSVMHEALHNHYTQKSLSLSPGK heavy 2: EVQLLESGGGLVQPGGSLRLSCAASGFSFSSYTMSWVRQAPGKGLEWVATISGGGRDIYYPDSVKGRFTISRDNSKNTLYLQMNSLRAEDTAVYYCVLLTGRVYFALDSWGQGTLVTVSSASTKGPSVFPLAPSSKSTSGGTAALGCLVKDYFPEPVTVSWNSGALTSGVHTFPAVLQSSGLYSLSSVVTVPSSSLGTQTYICNVNHKPSNTKVDKKV[human IgG1 Fc with changes left out]GGGGSGGGGSGGGGSDCDIEGKDGKQYESVLMVSIDQLLDSMKEIGSNCLNNEFNFFKRHICDANKEGMFLFRAARKLRQFLKMNSTGDFDLHLLKVSEETTILLNCTGQVKGRKPAALGEAQPTKSLEENKSLKEQKKLNDLCFLKRLLQEIKTCWNKILMGTKEH | 6.4 | 12 | 17.7 | 130 | 104 | 185 | 15.6 | 0.00431 | 277000 | – | 5.36 | 0.00267 | 504000

Source: US20230192795A1 (Hoffmann-La Roche, published 2023)
